ChEMBL document CHEMBL5303300, “EUbOPEN Chemogenomics Library - Multiplex” (2023)

Columns and labels:
Format in all cases: toxicity, cell-based
U2OS = test: Multiplex assay against U2OS; conditions: human, number of replicates 2
Outline: (§1)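 Phenotypes for tubulin, mitochondrial mass and membrane permeability are expressed as per cents of healthy-nucleus cells. Cells were stained live at seeding with Hoechst33342, BioTracker Green Microtubule Cytoskeleton Dye, MitoTracker Red and Annexin V Alexa Fluor 680, then imaged after compound addition on a CQ1 microscope at 37°C and 5% CO2. Machine-learning gating in CellPathfinder separated Hoechst high-intensity objects from normal cells, divided normal cells by nuclear state (healthy, pyknosed, fragmented) and divided pyknosed cells into mitotic or apoptotic.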

HEK-293T = test: Multiplex assay against HEK293T; conditions: human, 10 µM, compound concentration 10 uM, number of replicates 2; outline: as §1
Fibroblast = test: Multiplex assay against human fibroblast; conditions: 10 µM, compound concentration 10 uM, number of replicates 2; outline: as §1
[1] = 12 h, 10 µM, compound concentration 10 uM
[2] = 24 h, 10 µM, compound concentration 10 uM
[3] = 48 h, 10 µM, compound concentration 10 uM
[4] = 48 h, 1 µM, compound concentration 1 uM

## CCOC(=O)Nc1cc(-c2ccc(C)c(NS(C)(=O)=O)c2)nn2c(C)nnc12
U2OS; [1]
  Population Fragmented Nuclei (%): 8, 5, 6, 31%
  Total Cell Count: 45, 156, 198, 32
U2OS; [2]
  Population Fragmented Nuclei (%): 13, 11, 12, 40%
  Population Mitochondria Different-Phenotype (%): 8, 3, 1, 12%
  Total Cell Count: 61, 207, 241, 32
U2OS; [3]
  Population Membrane Permeable-Phenotype (%): 18, 14, 3, 5%
  Population Tubulin-Different-Phenotype (%): 27, 66, 90, 86%
  Total Cell Count: 36, 64, 248, 286
HEK-293T; 24 h
  Population Mitochondria Different-Phenotype (%): 29, 8, 13, 18%
HEK-293T; 48 h
  Population Mitochondria Different-Phenotype (%): 4%, 22%, 12%
  Population Tubulin-Different-Phenotype (%): 5, 32, 4, 10%
Fibroblast; 12 h
  Population Membrane Permeable-Phenotype (%): 8, 11, 6, 22%
Fibroblast; 48 h
  Population Mitotic Cells (%): 19%, 2%, 27%

## CC(C)(C)c1cnc(CSc2cnc(NC(=O)C3CCNCC3)s2)o1 [BMS-387032]
U2OS; 12 h, 1 µM, compound concentration 1 uM
  Population Fragmented Nuclei (%): 30% and 7%
U2OS; [1]
  Population Fragmented Nuclei (%): 50% and 6%
  Population Membrane Permeable-Phenotype (%): 15% and 4%
  Population Tubulin-Different-Phenotype (%): 15% and 49%
  Total Cell Count: 40 and 182
U2OS; 24 h, 1 µM, compound concentration 1 uM
  Population Mitotic Cells (%): 33% and 5%
U2OS; [2]
  Population Fragmented Nuclei (%): 48% and 12%
  Population Membrane Permeable-Phenotype (%): 28% and 7%
  Total Cell Count: 43 and 185
U2OS; [4]
  Population Membrane Permeable-Phenotype (%): 14% and 2%
  Population Mitotic Cells (%): 31% and 6%
U2OS; [3]
  Population Fragmented Nuclei (%): 51% and 14%
  Total Cell Count: 47 and 179
HEK-293T; 12 h
  Population Pyknosed Nuclei (%): 16% and 5%

The source holds more than one record for some entries. This list holds those alone. The source may hold further records. Results that share an entry repeat one measurement in other runs, samples, wells, individuals or studies.
